# Reference: the supplement of paper PMC3334620
# Over roughly 33,000 sequences, “E-score (-0.5 to 0.5)” has its median near -0.04; the highest 2% begin near 0.36. The list shows a part of the results.
# Biological target: T1, Hmlalpha2 (UniProt P0CY09)
# T1 sequence: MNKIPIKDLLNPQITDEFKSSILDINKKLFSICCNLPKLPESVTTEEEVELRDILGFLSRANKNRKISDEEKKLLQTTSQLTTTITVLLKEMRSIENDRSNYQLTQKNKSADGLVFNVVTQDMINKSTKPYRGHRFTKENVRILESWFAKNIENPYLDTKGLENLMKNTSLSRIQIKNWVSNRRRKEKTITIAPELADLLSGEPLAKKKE
# Test: PBM E-score (8-mer binding enrichment) (E-score (-0.5 to 0.5)); higher = stronger / more preferred TF binding; most listed sequences are background and not binding sites
# Conditions: protein concentration: 200 nM; construct: GST-full length
# How it was run: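 Each ungapped eight-base word and its reverse complement, pooled, received an E-score from the Universal PBM Analysis Suite. Underlying scans, normalised with masliner, recorded fluorescent anti-GST bound to GST-tagged yeast transcription factors. These were applied at about 100-200 nM to universal all-10-mer Agilent arrays double-stranded by primer extension.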
row,Sequence,PBM E-score
1,CGAGACCA,-0.0743
2,GATACCGC,0.0233
3,ATCATGTA,0.472
4,ATTCGTAA,0.155
5,CAGTTAGA,-0.175
6,ATGATCGC,0.00054
7,CCCCTCTC,-0.33
8,AGCGGGAA,-0.01
9,ATGACACA,0.302
10,AATTGATA,0.127
11,CTTCCTCA,-0.29
12,AGATCCTG,-0.148
13,CAGTACCA,-0.101
14,CAGTGGAA,-0.216
15,CCGCATCA,-0.164
16,GTTACGCA,0.277
17,CCTTAACC,-0.0995
18,CGGATACA,0.209
19,AATTGACG,0.1
20,CATGGCCA,-0.00377
21,ACGATTAC,0.383
22,GATTAGGC,0.00274
23,CCAGAGCA,-0.18
24,GAAGCTCA,-0.0455
25,CGCCTCCC,-0.221

row,Sequence,PBM E-score
1,AGGCAGCC,-0.253
2,AAAACGGG,-0.0612
3,AATTGGGG,-0.26
4,GCTCAGAC,-0.25
5,AACCCGTT,-0.106
6,CACCCAGC,-0.247
7,ACTCGAGT,0.216
8,AGAATGAA,0.0371
9,AGACGGTA,-0.168
10,TCGGCTAA,-0.0589
11,TAGTTGGA,0.00334
12,CCACCGAC,-0.106
13,TACAGATA,0.0941
14,AAAGAGAT,-0.0469
15,AATCCTGC,-0.0638
16,ACAACGGT,0.128
17,ACACGGTA,0.366
18,ATATGGGC,-0.109
19,TAGCTGCA,-0.0884
20,AAACGATG,0.0541
21,AACCCGGT,-0.174
22,ATATGCCA,-0.212
23,TACACCGA,0.115
24,GAAAAGGC,-0.148
25,GTGCCTGA,-0.237

row,Sequence,PBM E-score
1,AACACATA,0.39
2,TCAACAAA,0.272
3,ACGCGCAC,0.189
4,GAAGAGCA,-0.147
5,CCACGCAA,-0.0282
6,ATCCACCA,-0.092
7,CAAGAGCA,-0.00496
8,CTTGCTTA,-0.0865
9,GAACAACC,-0.0114
10,CACGACTC,0.186
11,AATGCCGC,-0.107
12,CGGCACCG,-0.155
13,ATTGTAAG,0.0623
14,CAATGCTC,-0.0938
15,CAAACTTG,0.0129
16,CTATGAGC,-0.197
17,CATAGTAG,-0.0314
18,AAGTCCCC,-0.248
19,GAGGGTGA,-0.233
20,AACCCGGG,-0.179
21,AAGTACGG,0.0031
22,TAGCTAGA,0.0152
23,ATGAGGCA,-0.148
24,ATATGCGC,0.154
25,ATATCATA,0.148

row,Sequence,PBM E-score
1,GACGTTGC,-0.129
2,AGGTACCC,-0.312
3,CATCCAAC,0.077
4,CTTATAGC,0.0895
5,GCAGTCGC,-0.219
6,ATAGGGGA,-0.308
7,GGCCGTGA,-0.249
8,AGTTTGAG,-0.0384
9,AGTATGAA,0.123
10,CACCACCG,-0.185
11,AGACTGCC,-0.15
12,ACTAAGCT,0.102
13,AGAAGCGG,-0.259
14,AGCCAGTC,-0.326
15,CCGTGGGC,-0.189
16,CTACCAGC,-0.171
17,ATGACGAA,0.156
18,ACTCGGAC,-0.0661
19,CAGAGGGC,-0.164
20,ACTACAGG,0.133
21,CAAGTCGG,-0.175
22,ACTTTCGG,-0.0932
23,AACGATTC,-0.0757
24,GTAGGCAC,-0.107
25,CTACACAG,0.421

row,Sequence,PBM E-score
1,ACCAATGC,-0.0446
2,CCATCCGG,-0.249
3,AGAATTGG,-0.205
4,CCGGAAAA,-0.0183
5,CGATATAA,0.0472
6,AATTTGGA,0.0448
7,ACCCTTCG,-0.106
8,ACTTCAAA,-0.0197
9,CAAAGTAA,0.199
10,ACAGATTG,0.0116
11,GATAAAGA,-0.18
12,AATTGTTG,0.119
13,CGATGCCA,-0.156
14,CACTCATA,-0.0437
15,AAGGGCTC,-0.21
16,GCAGTCAC,-0.215
17,ACCACCTG,-0.221
18,GTGACTCA,-0.132
19,ACGCGCAA,0.231
20,CAAACCGC,-0.231
21,ATGCACAT,0.103
22,ACTTCCAA,-0.0901
23,ACACGACG,0.42
24,ATGTAAGA,0.433
25,ATTTGTCA,0.123

row,Sequence,PBM E-score
1,AACTATGT,0.335
2,ACTAGAAT,0.137
3,AATCAAGT,0.226
4,CCGGGGAG,-0.241
5,ACCAGGGA,-0.0847
6,AAAGAAGG,-0.204
7,AGCATTTG,0.00311
8,ATAATGTC,0.13
9,AGTACAGG,0.134
10,GCGAAAGC,-0.122
11,CGGCTGGC,-0.216
12,CCGTAACA,0.262
13,ACTTCCCA,-0.156
14,CCTGTAAG,-0.00273
15,AAAATTTA,0.107
16,GCATCAAC,0.0819
17,CGAAAAAG,-0.0861
18,ACGCCCGA,-0.177
19,ACCGGCGG,-0.414
20,CCTTTAAG,-0.0876
21,TATTGAGA,0.0411
22,CTAGGTGC,-0.231
23,ACAGAGAA,0.018
24,CGGCCGAC,-0.188
25,GTAAGTCA,0.102

row,Sequence,PBM E-score
1,ACTGGCGG,-0.173
2,GTGGAAGA,-0.0343
3,CGACCGGA,-0.258
4,CCAGTAAA,0.0249
5,TCATCCCA,-0.231
6,AGTATTCA,0.148
7,GACTCTAA,-0.0784
8,ACCGAGTG,-0.0761
9,CGCGGTAC,-0.0317
10,TACATCCA,0.311
11,TCATAAGA,-0.00466
12,CCTGGGCC,-0.254
13,AGGCTGCG,0.0127
14,TAATTTCA,0.182
15,ACCAAAAG,0.0656
16,GGGGCATA,-0.257
17,AATGCAGC,-0.17
18,CCGGATAG,-0.0549
19,ATTCAAAA,0.121
20,CGGTTGTA,0.121
21,TGATGCCA,-0.099
22,CGGCGAAC,-0.257
